# In publication PMC4336329 (PLoS ONE, 2015):
# Among all 310,000 compounds or so, about 2,200 (0.71%) showed an effect of 50% or more. The effect is printed as a negative number. This is one part of the list.
# Molecular target: human ether-à-go-go-related gene (hERG) potassium channel (human, UniProt Q12809)
# Experiment: primary screen, population patch clamp on CHO cells stably expressing hERG
# Sequence of human ether-à-go-go-related gene (hERG) potassium channel (Q12809 whole entry, looked up): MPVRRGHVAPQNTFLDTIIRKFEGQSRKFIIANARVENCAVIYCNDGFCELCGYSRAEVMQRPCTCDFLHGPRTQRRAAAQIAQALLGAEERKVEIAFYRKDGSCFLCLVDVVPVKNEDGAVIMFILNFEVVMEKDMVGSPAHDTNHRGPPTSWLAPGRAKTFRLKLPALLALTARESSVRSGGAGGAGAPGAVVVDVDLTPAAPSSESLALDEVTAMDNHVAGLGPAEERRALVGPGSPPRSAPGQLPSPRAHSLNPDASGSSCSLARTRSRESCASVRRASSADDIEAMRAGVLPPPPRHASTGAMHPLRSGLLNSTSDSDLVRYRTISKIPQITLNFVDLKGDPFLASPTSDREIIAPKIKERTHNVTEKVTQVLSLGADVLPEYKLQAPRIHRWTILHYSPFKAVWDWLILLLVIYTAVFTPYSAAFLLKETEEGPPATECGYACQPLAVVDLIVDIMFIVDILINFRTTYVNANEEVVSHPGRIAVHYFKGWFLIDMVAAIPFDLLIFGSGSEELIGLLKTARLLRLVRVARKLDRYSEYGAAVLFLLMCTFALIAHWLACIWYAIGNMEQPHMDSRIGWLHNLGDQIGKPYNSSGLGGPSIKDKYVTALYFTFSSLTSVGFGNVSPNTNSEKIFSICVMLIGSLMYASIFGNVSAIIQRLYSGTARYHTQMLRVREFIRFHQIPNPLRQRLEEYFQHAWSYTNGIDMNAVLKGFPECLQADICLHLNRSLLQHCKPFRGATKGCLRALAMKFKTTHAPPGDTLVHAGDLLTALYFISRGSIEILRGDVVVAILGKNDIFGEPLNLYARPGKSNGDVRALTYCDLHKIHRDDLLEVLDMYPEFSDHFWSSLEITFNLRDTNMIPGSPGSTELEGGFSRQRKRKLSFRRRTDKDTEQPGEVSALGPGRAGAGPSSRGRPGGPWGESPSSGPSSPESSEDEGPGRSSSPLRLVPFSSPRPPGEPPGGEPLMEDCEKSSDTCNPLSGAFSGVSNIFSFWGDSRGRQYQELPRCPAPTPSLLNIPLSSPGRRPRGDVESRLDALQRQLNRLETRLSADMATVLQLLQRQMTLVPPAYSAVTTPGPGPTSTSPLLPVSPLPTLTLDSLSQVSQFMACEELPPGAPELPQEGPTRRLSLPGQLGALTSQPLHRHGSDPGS
row,Compound,"hERG current change (%, negative = inhibition) at 1uM [%]"
1,CC(=O)c1ccc(NC(=S)NC(=O)/C=C/c2ccc(F)cc2)cc1,17
2,O=C(COC(=O)C1CCN(S(=O)(=O)c2cccs2)CC1)c1ccccc1,24
3,Cc1cc(C)c(C)c(OCCn2ccnc2)c1,14.4
4,C=CC(=O)N(CCC)C(c1ccccc1)c1ccccc1OC (stereo not drawn),11.1
5,O=C(Nc1nc2nc(-c3ccccc3)cc(=O)n2[nH]1)c1ccccc1,12.8
6,CC(C)Oc1cccc(C(=O)NC(=S)Nc2ccccc2)c1,5.02
7,COc1ccc(C(=O)NC2CCN(CC(=O)Nc3c(C)cccc3C)CC2)cc1OC,12.7
8,CCC(=O)c1cc2c(C)cc(=O)oc2c(C)c1O,1.78
9,CCc1nn(CCCC(=O)NC(C)c2ccccc2)c(=O)c2cc3occc3n12 (stereo not drawn),2.58
10,Cn1cc(-c2cc(C(=O)O)on2)cn1,4.82
11,Clc1ccc(OCCCCCN2CCCC2)c(Br)c1,-3.46
12,COc1cc(/C=C/C(=O)OCC(=O)N2CCC(C)CC2)ccc1OCC#N,8.55
13,COc1ccc(S(N)(=O)=O)cc1C(=O)NCC1(N2CCCCC2)CCCCC1,7.44
14,Cc1ccsc1C(=O)N1CCN(c2ccccn2)CC1,10
15,COc1cc(/C=N/N(C)c2ccccc2)cc(Cl)c1O,11.7
16,O=C(/C=C/c1ccco1)NCC(=O)N/N=C/c1ccc([N+](=O)[O-])cc1,14.6
17,O=CN1CCN(C(C(=O)NC2CCCC2)c2ccc(Cl)cc2)CC1 (stereo not drawn),-7.61
18,Cc1ccc(NC(=O)C(=O)NCc2ccc(/C=C(/C#N)C(=O)NCc3cccnc3)o2)cc1,-13.6
19,Cn1cc(S(=O)(=O)Nc2cccc(F)c2)c(=O)n(C)c1=O,-12.9
20,CCOc1ccc(NS(=O)(=O)c2cc(NC(=O)CCC(=O)c3cccs3)ccc2Cl)cc1,13.7
21,COc1ccc([C@H]2CC(=O)C=C(c3cc(C(F)(F)F)cc(C(F)(F)F)c3)C2)cc1,10.3
22,CNC(=O)c1oc(-c2ccccc2)nc1C,3.57
23,CN1CCN(C(=S)SCC(=O)Nc2nc(-c3ccccc3)c(-c3ccccc3)o2)CC1,-1.46

row,Compound,"hERG current change (%, negative = inhibition) at 1uM [%]"
1,CCOC(=O)CCC(=O)N1CCOCCOCCN(C(=O)CCC(=O)OCC)CCOCCOCC1,11
2,CCOc1ccc(C(=O)Nc2ccccc2N2CCCC2)cc1,-1.85
3,CCOC(=O)c1sc(NC(=O)CSc2n[nH]c(-c3ccccc3)n2)c(C#N)c1C,-0.898
4,Cc1ccc(OCC(O)CN2CCOCC2)cc1C.Cl (stereo not drawn),16.1
5,C/C(=N\NS(C)(=O)=O)c1ccc(C)cc1,9.38
6,Cc1cccc(NC(=S)NCC(c2cccnc2)N2CCOCC2)c1 (stereo not drawn),18.9
7,Nc1cc(C(=O)N/N=C/c2cccc([N+](=O)[O-])c2)n[nH]c1=O,13.1
8,CC(C)C(=O)N1CCN(c2ccccc2NC(=O)Cc2ccc(Cl)cc2)CC1,-38.9
9,CN(CCC#N)C(=S)Nc1ccc(S(=O)(=O)N2CCOCC2)cc1,18.2
10,Cc1ccc(NC(=O)CN2C(=O)N/C(=C/c3ccc(N4CCOCC4)cc3)C2=O)cc1,-4.04
11,Cc1ccc(CN(C(=O)Cn2nnc3ccccc32)C(C(=O)NCc2ccco2)c2ccc(C)o2)cc1 (stereo not drawn),6.99
12,N#Cc1c(C(F)(F)F)cc(-c2cccc(Cl)c2)[nH]c1=O,14.7
13,COc1ccc(C(c2c(N)[nH]c(=S)[nH]c2=O)c2c(N)[nH]c(=S)[nH]c2=O)cc1,13.9
14,CCCCCCOc1ccc(N2C(=O)CC(N3CCN(C(=O)c4ccco4)CC3)C2=O)cc1 (stereo not drawn),10.3
15,CCN1c2ccccc2-c2nc3ccccc3n2C1c1ccco1 (stereo not drawn),3.47
16,NS(=O)(=O)c1cnccc1NCCc1ccccc1,14.4
17,Cc1cc(NC(=O)COn2nnc3ccc(S(C)(=O)=O)cc32)ccc1Br,-2.22
18,Cc1nn(CC(=O)Nc2ccc(Cl)cc2)c(=O)c2cc(-c3ccccc3)nn12,18.8
19,O=C(C1CCCCC1)N1CCN=C1SCc1cccc([N+](=O)[O-])c1,3.79
20,Cc1cccc(C(C)C)c1NC(=O)C(C)OC(=O)Cc1n[nH]c(=O)c2ccccc12 (stereo not drawn),16.5
21,O=C(NNC(=O)c1ccc(Cl)cc1Cl)Nc1ccccc1,8.54
22,COc1ccc(CNC(=O)NS(=O)(=O)c2ccc(C)cc2)cc1,5.34
23,CC(C)CNc1nc(NC(C)(C)C)nc(Oc2ccc(=O)[nH]n2)n1,5.16

row,Compound,"hERG current change (%, negative = inhibition) at 1uM [%]"
1,Cc1ccc(-n2c(Cc3cccn3C)nnc2SCC(=O)NC2CCCCC2)cc1,-7.66
2,Cc1cc(C)nc(NC(=S)Nc2ccccc2)n1,2.62
3,O=C(Nc1cccc(S(=O)(=O)N2CCCCC2)c1)c1ccc2ncsc2c1,-4.22
4,COc1ccc(/C=N/NC(=O)c2sccc2C)c2ccccc12,11.5
5,COc1ccccc1/C=C1\S/C(=N/NC(=O)c2cccc(Br)c2)NC1=O,12.2
6,COc1cc2cnc(-c3ccccc3)c(-c3ccc([N+](=O)[O-])cc3)c2cc1OC,15.4
7,CCn1c(O)c(/C=N/n2cnnc2)sc1=S,9.03
8,COc1cc(-c2noc(C)n2)cc(OC)c1OC,15.5
9,COc1cc(OC)c2c(O)c3c(c(-c4c5c(c(O)c6c(OC)cc(OC)cc46)CO[C@@H](C)[C@H]5O)c2c1)[C@H](O)[C@H](C)OC3,9.73
10,CCOc1ccc(NC(=O)COc2ccc(S(=O)(=O)N3CCCC3)cc2)cc1,10.7
11,CSc1ncccc1C(=O)OCc1ccc(Br)cc1,12.5
12,CCC(CC)=NNc1ccc(S(N)(=O)=O)cc1[N+](=O)[O-],8.83
13,Cc1ccc(-c2nnn(CC(=O)N(CC3CCCO3)C(C(=O)NC3CCCC3)c3ccc(O)cc3)n2)o1 (stereo not drawn),4.52
14,CCn1cc(-c2cc(C(=O)O)c3ccccc3n2)cn1,17.9
15,CC(=O)Nc1nc(C)c(Oc2ccccc2)c(=O)[nH]1,-0.98
16,COC(=O)c1c(NC(=O)c2nc3ccccc3s2)sc2c1CC(C)(C)NC2(C)C,13.5
17,CCO.CCn1c(COc2ccc3c(c2)OCO3)nnc1SCC(=O)O,2.98
18,COc1ccccc1C1NC(=O)NC(C)=C1C(=O)OC1CCCCC1 (stereo not drawn),8.27
19,COC(=O)CSc1nc2ncc(Cl)cc2[nH]1,-0.29
20,Cc1ccc(C(=O)Nc2ncccc2C)cc1S(=O)(=O)N1CCOCC1,14.2
21,CCc1ccc(NC(=O)C2CC(=O)N(C(C)C)C2)cc1 (stereo not drawn),6.97
22,O=C(Nc1nnc2n1CCS2)c1ccco1,15.8
23,CN(C)S(=O)(=O)c1ccc(C(=O)NCc2nc3ccccc3s2)cc1,6.26

row,Compound,"hERG current change (%, negative = inhibition) at 1uM [%]"
1,COC(=O)C1=C(O)/C(=C\c2cc(C)n(-c3ccc(F)cc3)c2C)N=C1C,-1.63
2,COC(=O)c1c(NC(=O)Cc2ccccc2)sc(C)c1C,8.47
3,CC(C)C(C)NC(=O)CN1C(=O)NC2(CCc3ccccc32)C1=O (stereo not drawn),14.4
4,O=C(COC(=O)c1cncc(Br)c1)NCc1ccccc1Cl,16
5,O=C(O)c1cccc2c1C(=O)c1cccc3snc-2c13,2.12
6,COc1cccc(NC(=O)CN(C)C(=O)c2c(C)noc2C)c1,-11.6
7,N/C(=N\OC(=O)c1cccc(Cl)c1)c1ccccn1,16.8
8,COc1ccc(-n2ncc3c(SCC(=O)NNC(C)=O)ncnc32)cc1,9.7
9,COc1cccc(NC(=O)COc2ccc3c(c2)CCC3)c1,5.99
10,C=C(C)Cn1c(CCNC(=O)c2ccco2)nc2ccccc21,-3.26
11,COc1ccccc1NNC(=O)C(O)(c1ccccc1)c1ccccc1,1.88
12,CCCOc1ccc(/C=C/C(=O)Nc2ccc([N+](=O)[O-])cc2)cc1,11.8
13,COC(=O)c1ccc(OCCOc2ccccc2C)cc1,11.4
14,CCCN1C2CCCC1CC(NC(=O)C1CCCCC1)C2 (stereo not drawn),14
15,Cc1ccc(S(=O)(=O)NC(=O)Nc2nnc(C3CC3)s2)cc1,-11.1
16,COC(=O)COc1cccc(NC(=O)c2ccc(Cl)cc2)c1,8.12
17,CCCS(=O)(=O)Nc1cccc(-c2nc3cccnc3s2)c1,5.62
18,O=C(CSc1ccccc1)OCC(=O)N1CCN(C(=O)c2ccco2)CC1,16.4
19,CN(Cc1cn(C)nc1-c1ccccc1F)CC1CCN(Cc2ccccc2)CC1,3.45
20,CCOc1ccccc1N(CC(=O)Nc1ccc2c(c1)OCO2)S(C)(=O)=O,7.09
21,O=C(c1c(F)c(F)c(F)c(F)c1F)N1CCN(Cc2ccc3c(c2)OCO3)CC1,9.43
